# Experimental data: the supplement of paper PMC9446081
# Out of some 39,000 compounds screened, about 220 (0.56%) showed activity. The list shows a part of the results.
# Test system: Escherichia coli K-12 BW25113
# Test: relative growth (OD600 normalised to plate interquartile mean) (fraction); higher = less growth inhibition, active = 0.2 or less
# Conditions: 50 µM; LB; incubation time: overnight (16-24 h)
# 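Also: static incubation at 37 °C against the wild-type strain, values averaged over two biological replicates.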
row,Compound,relative growth
1,NCCN1CCO[C@H](c2ccccc2)C1,inactive: 0.998
2,CCCNC(=O)C[C@@H]1CC[C@H]2[C@@H](COc3ccc(NC(=O)c4ccc5c(c4)OCO5)cc3C(=O)N2C)O1,inactive: 1.02
3,C[C@@H]1CN([C@@H](C)CO)C(=O)c2cc(NC(=O)Cc3ccccc3)ccc2O[C@@H]1CN(C)Cc1ccc(-c2ccccc2)cc1,inactive: 0.837
4,C[C@H](CO)N1C[C@H](C)[C@H](CN(C)Cc2ccc(-c3ccccc3)cc2)OCc2ccccc2-c2c(n(C)c3ccccc23)C1=O,inactive: 1.03
5,O=C(C[C@@H]1CC[C@H]2[C@@H](COC[C@@H](O)CN2Cc2ccccc2F)O1)N[C@@H]1CCN(Cc2ccccc2)C1,inactive: 0.994
6,COc1ccc2c3c(n(c2c1)C)[C@H](CO)N(C[C@]13CCN(CC1)C(=O)C1CC1)C(=O)CN1CCOCC1,inactive: 1.01
7,C[C@H]1CN([C@@H](C)CO)C(=O)CCCn2nncc2CO[C@H]1CN(C)C(=O)Nc1cccc(C(F)(F)F)c1,inactive: 0.976
8,CC(C)NC[C@H]1CCC(=O)N1,inactive: 1.01
9,C[C@H](CO)N1C[C@H](C)[C@@H](CN(C)CC2CCCCC2)OCCCC[C@H](C)Oc2ccc(NC(=O)CCCCCC(=O)Nc3ccccc3N)cc2C1=O,inactive: 0.845
10,C[C@@H]1CCCCO[C@@H](CN(C)C(=O)Nc2cccc3ccccc23)[C@@H](C)CN([C@@H](C)CO)C(=O)c2cc(NC(=O)Cc3ccccc3)ccc2O1,inactive: 0.997
11,C[C@@H]1CN([C@@H](C)CO)C(=O)c2cc(NS(=O)(=O)c3ccc(Cl)cc3)ccc2O[C@@H](C)CCCCO[C@@H]1CN(C)C(=O)Nc1cccc2ccccc12,inactive: 1.03
12,Cc1noc(C)c1NC(=O)Nc1ccc2c(c1)C(=O)N([C@@H](C)CO)C[C@@H](C)[C@H](CN(C)Cc1ccc(C(F)(F)F)cc1)OCCCC[C@H](C)O2,inactive: 0.992
13,C[C@@H]1CN([C@H](C)CO)C(=O)c2cc(C#CC3CCCC3)cnc2O[C@H]1CN(C)S(=O)(=O)c1cccc(F)c1,inactive: 1.02
14,C[C@H]1CN([C@@H](C)CO)C(=O)Cc2cc(NC(=O)Nc3cccc4ccccc34)ccc2O[C@H]1CN(C)Cc1ccc2c(c1)OCO2,inactive: 0.989
15,CSc1cnc2c(=O)[nH]c(=O)n(C)c2n1,inactive: 0.971
16,COC(=O)[C@H]1CCCNC1=O,inactive: 1.05
17,C[C@H]1CN([C@@H](C)CO)S(=O)(=O)c2ccc(-c3cccnc3)cc2O[C@@H]1CN(C)C(=O)c1cccc(F)c1,inactive: 0.992
18,COc1ccc(cc1)S(=O)(=O)N1C[C@]2(C1)CN([C@H](CO)c1c2c2ccc(cc2n1C)OC)C(=O)c1cccnc1,inactive: 0.984
19,C=C[C@@]1(C)CC(=O)[C@]2(O)[C@@]3(C)[C@@H](O)CCC(C)(C)[C@@H]3[C@H](O)[C@H](OC(C)=O)[C@@]2(C)O1,inactive: 0.969
20,Cn1c(=O)n(C)c2cc(CO)ccc21,inactive: 0.989

row,Compound,relative growth
1,NC(=O)c1c(Cl)ncc2c1NCC2,inactive: 1.01
2,C[C@H]1CCCCO[C@H](CN(C)Cc2ccc3c(c2)OCO3)[C@@H](C)CN([C@@H](C)CO)C(=O)c2cc(NC(=O)C3CCCCC3)ccc2O1,inactive: 0.983
3,Cc1ccc(S(=O)(=O)N(C)C[C@H]2Oc3ccc(NC(=O)c4ccncc4)cc3C(=O)N([C@@H](C)CO)C[C@@H]2C)cc1,inactive: 1.03
4,C[C@@H]1CN([C@H](C)CO)C(=O)c2cc(NC(=O)C3CCCCC3)ccc2O[C@@H](C)CCCCO[C@@H]1CN(C)C(=O)Cc1ccccc1,inactive: 0.994
5,C[C@@H]1CN([C@H](C)CO)C(=O)c2cc(NC(=O)c3ccncc3)ccc2O[C@@H](C)CCCCO[C@H]1CN(C)Cc1ccccc1,inactive: 0.996
6,C[C@H](CO)N1C[C@H](C)[C@@H](CN(C)S(C)(=O)=O)OCCCC[C@H](C)Oc2ccc(NS(=O)(=O)c3cn(C)cn3)cc2C1=O,inactive: 0.985
7,C[C@H](CO)N1C[C@H](C)[C@@H](CN(C)Cc2ccc(-c3ccccc3)cc2)Oc2c(NC(=O)Nc3ccc4c(c3)OCO4)cccc2C1=O,inactive: 0.947
8,C=CC[C@@H](CC(=O)N[C@@H](CO)Cc1ccccc1)C(=O)N[C@H](COC(=O)[C@@H](CC=C)Cc1ccc(F)cc1)Cc1c[nH]c2ccccc12,inactive: 1.05
9,C[C@@H]1CN([C@@H](C)CO)C(=O)c2cc(NC(=O)Cc3cn(C)c4ccccc34)ccc2O[C@@H]1CN(C)Cc1ccc(-c2ccccc2)cc1,inactive: 1.03
10,C[C@@H]1CN([C@H](C)CO)C(=O)c2c(c3ccccc3n2C)-c2ccccc2CO[C@@H]1CN(C)Cc1cccc(C(F)(F)F)c1,inactive: 1.04
11,O=C(C[C@H]1CC[C@H]2[C@@H](COC[C@@H](O)CN2C(=O)c2cccnc2)O1)NCC1CC1,inactive: 0.988
12,CO[C@H]1O[C@H](CO)[C@@H](OC(=O)c2ccc(Br)cc2)[C@@H]2OC(=O)[C@@H](Cc3ccccc3)C/C=C/C[C@H](Cc3ccccc3)C(=O)O[C@@H]12,inactive: 0.988
13,Cc1ccc(S(=O)(=O)N(C)C[C@@H]2Oc3ccc(NC(=O)CCN4CCOCC4)cc3CC(=O)N([C@H](C)CO)C[C@@H]2C)cc1,inactive: 1.01
14,O=NN(CCCl)C(=O)NC1CCCCC1,inactive: 1.07
15,COc1ccc(S(=O)(=O)N(C)C[C@H]2OCCCC[C@@H](C)Oc3ccc(NC(=O)Nc4ccc5c(c4)OCO5)cc3C(=O)N([C@H](C)CO)C[C@@H]2C)cc1,inactive: 1
16,C[C@@H]1CN([C@H](C)CO)C(=O)c2cc(NC(=O)CCN3CCOCC3)ccc2O[C@@H]1CN(C)Cc1ccc2c(c1)OCO2,inactive: 1.01
17,Cc1ccc(C(=O)N(CCCN)[C@@H](c2nc3cc(Cl)ccc3c(=O)n2Cc2ccccc2)C(C)C)cc1,inactive: 0.972
18,CO[C@H]1CN(C)C(=O)c2ccc(NS(=O)(=O)c3cn(C)cn3)cc2OC[C@@H](C)N(CC2CC2)C[C@H]1C,inactive: 0.998
19,COc1ccccc1O,inactive: 0.929
20,CCOC(=O)c1cc(C(=O)OCC)n(C)n1,inactive: 1

row,Compound,relative growth
1,C[C@@H]1CN([C@@H](C)CO)C(=O)c2cccc(NS(=O)(=O)c3ccc(Cl)cc3)c2O[C@@H]1CN(C)Cc1ccc(C(F)(F)F)cc1,inactive: 1.02
2,C[C@@H]1CCCCO[C@H](CN(C)C(=O)Nc2ccc(C(F)(F)F)cc2)[C@H](C)CN([C@H](C)CO)C(=O)c2cc(NC(=O)Nc3ccc(F)cc3)ccc2O1,inactive: 0.988
3,CCOC(=O)CCCCCC(=O)Nc1ccc2c(c1)C(=O)N([C@@H](C)CO)C[C@H](C)[C@H](CN(C)C(=O)Nc1ccc(F)cc1)OCCCC[C@H](C)O2,inactive: 1.04
4,C[C@@H]1CCCCO[C@@H](CN(C)Cc2ccc(C(F)(F)F)cc2)[C@@H](C)CN([C@H](C)CO)C(=O)c2cc(NS(=O)(=O)c3cccs3)ccc2O1,inactive: 0.996
5,CC(CO)(CO)NC(=O)NC1CCCCC1,inactive: 0.937
6,Cc1ccc(S(=O)(=O)Nc2ccc3c(c2)C(=O)N([C@H](C)CO)C[C@H](C)[C@H](CN(C)S(C)(=O)=O)OCCCC[C@@H](C)O3)cc1,inactive: 1.01
7,C[C@H](CO)N1C[C@H](C)[C@H](CN(C)C(=O)Nc2ccc3c(c2)OCO3)OCCCC[C@H](C)Oc2ccc(NS(=O)(=O)c3ccc(Cl)cc3)cc2C1=O,inactive: 0.989
8,Cc1cc(O)c(C(=O)NC(C(=O)NC2C(=O)N3C(C(=O)O)=C(CSc4nnnn4C)CSC23)c2ccc(O)cc2)cn1 (stereo not given),active: 0.0416
9,C[C@@H]1CN([C@@H](C)CO)C(=O)Cc2cc(NC(=O)CCC(F)(F)F)ccc2O[C@@H]1CN(C)S(=O)(=O)c1cn(C)cn1,inactive: 0.999
10,C[C@@H]1CN([C@H](C)CO)C(=O)c2cc(NS(=O)(=O)c3cccs3)ccc2O[C@H]1CN(C)S(=O)(=O)c1cccs1,inactive: 1.04
11,C[C@@H]1CN([C@@H](C)CO)C(=O)c2cc(NS(=O)(=O)c3ccc(F)cc3)ccc2O[C@@H](C)CCCCO[C@H]1CN(C)C(=O)Nc1ccccc1,inactive: 1
12,O=C(C[C@@H]1CC[C@@H]2[C@H](COC[C@@H](O)CN2S(=O)(=O)c2ccc(F)cc2)O1)N[C@@H]1CCN(Cc2ccccc2)C1,inactive: 0.986
13,C[C@H]1CCCCO[C@@H](CN(C)C(=O)Nc2ccc(F)cc2)[C@@H](C)CN([C@@H](C)CO)C(=O)c2cc(NC(=O)c3ccncc3)ccc2O1,inactive: 0.991
14,COc1ccc(NC(=O)Nc2ccc3c(c2)C(=O)N([C@@H](C)CO)C[C@H](C)[C@H](CN(C)C(=O)Cc2ccccc2)OCCCC[C@H](C)O3)cc1,inactive: 1.04
15,COc1cccc(-c2ccc3c(c2)O[C@@H](CN(C)C(=O)C2CC2)[C@@H](C)CN([C@@H](C)CO)S3(=O)=O)c1,inactive: 1.01
16,C[C@@H]1CN([C@H](C)CO)C(=O)c2cc(NC(=O)CCCN(C)C)ccc2O[C@H]1CN(C)C(=O)Nc1ccc2c(c1)OCO2,inactive: 1.02
17,COC(=O)C[C@H]1CC[C@H]2[C@H](COc3ccc(NS(=O)(=O)c4ccccc4Cl)cc3C(=O)N2C)O1,inactive: 0.967
18,C[C@H](CO)N1C[C@H](C)[C@@H](CN(C)S(=O)(=O)c2ccccc2F)Oc2cc(-c3ccncc3)ccc2S1(=O)=O,inactive: 1.03
19,C[C@H]1CN([C@@H](C)CO)C(=O)c2cccc(NC(=O)Nc3ccccc3)c2O[C@@H]1CN(C)S(=O)(=O)c1cn(C)cn1,inactive: 0.977
20,C[C@@H]1CCCCO[C@H](CN(C)C(=O)Cc2ccccc2)[C@@H](C)CN([C@H](C)CO)C(=O)c2cc(NS(=O)(=O)c3ccc(F)cc3)ccc2O1,inactive: 1.01
